≈ marks a conversion by molar mass, not a printed value.
Tested on: S. aureus strain 1471
Experiment: Drop assay against S. aureus strain 1471 with or without copper
Details: 1:2 drug titration starting at 10 μM

MIC: +50 μM Cu: 0.3 µM (≈ 0.0697 µg/mL)
Structure (SMILES): CNC(=S)NN=CC=NNC(=S)NC [GTSM, reference compound]
